# Measured values as given in PubChem BioAssay AID588855 (National Center for Advancing Translational Sciences (NCATS), 2011).
# The campaign covered roughly 410,000 compounds. About 5,000 (1.2%) were called active. Inconclusive results, whose numbers are uncertain, are shown with a selection of clear calls. The call rests on the fitted dose curve; in most records, active means well fitted inhibition curve with a large enough effect; inconclusive means small, poorly fitted or top-dose-only effect; inactive means no such curve, though single readings can be large or run the other way. Potencies beside an inconclusive call are fits to weak or partial responses and may not hold up.
# Assay: qHTS for Inhibitors of TGF-b; further: nearly all actives have a fitted effect of over 65% in size
# Details: HepG2 CAGA-GFP TGF-b/SMAD3 reporter, GFP fluorescence, 18 h, TGF-beta stimulated, 500 pg/mL final; series mostly up to 46.1 µM; activity, negative = inhibition: at the top concentration
# Method in brief: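 HEPG2 CAGA-GFP, 1000 cells/well; 2 h settle, 37 C; cpd via pin tool; TGF-b 500 pg/mL final; 18 h, 37 C; GFP imaging ex488/em500-530; %Activity normalised to -TGF-b and +DMSO controls; CRC fit, curve class.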
# On the % scale 0 is the no-effect control and ±100 the full control effect; potency means the concentration at half of the fitted maximal effect; tags describe the fitted curve by direction and shape.
Structure (SMILES),"activity, negative = inhibition",Potency
O=c1sc(Nc2ccccc2)nc2ccccc12,inactive: 5.56%,–
COc1cc(OC)c(NC(=O)NCc2cccn2Cc2ccccc2)cc1Cl,–,active: 8.91 µM
Cc1cc(C)c2c3c(sc2n1)C(c1cccc(F)c1)C(C#N)=C(N)O3 (configuration not stated),inactive: 9.14%,–
CC(C)(C)CC(C)(C)NCC(O)COc1ccc2c(c1)CCC2 (configuration not stated),–,"inconclusive: 35.5 µM [inhibitor, single point]"
CCOC(=O)c1ccc(NC(=O)CCc2c(C)nc3c(c(C)nn3C(C)(C)C)c2C)cc1,–,"inconclusive: 35.5 µM [inhibitor, single point]"
CCN(c1ccccc1)S(=O)(=O)c1ccc(C(=O)N(CCCN(C)C)c2nc3c(C)cccc3s2)cc1,–,"inconclusive: 31.6 µM [inhibitor, single point]"
Cc1ccc(CCNC(=O)c2cccc(Nc3nc4ccccc4nc3-n3nc(C)cc3C)c2)cc1,–,"inconclusive: 0.0224 µM [inhibitor, full curve, poor fit]"
COc1ccc(S(=O)(=O)NCCc2sc(-c3cccc(C)c3)nc2C)cc1,–,"inconclusive: 35.5 µM [inhibitor, single point]"
CC1CCN(CCCNC(=O)c2ccc3c(=O)n(CCc4ccccc4)c(=O)[nH]c3c2)CC1,–,"inconclusive: 6.31 µM [inhibitor, single point]"
O=C(C1CCN(S(=O)(=O)c2cccc3nsnc23)CC1)N1CC=C(c2ccccc2)CC1,inactive: -18.2%,–
Cc1[nH]n2c(=O)cc(-c3ccc([N+](=O)[O-])cc3)nc2c1-c1ccccc1,–,"inconclusive: 17.8 µM [inhibitor, single point]"
OCc1ccc2c(c1)c(-c1ccc3c(c1)OCCO3)c(-c1ccccc1)n2-c1ccccc1,–,active: 20 µM
Cc1ccc(NC(=O)CSCc2cnn(-c3ccccc3)c2-n2cccc2)c(Cl)c1,–,"inconclusive: 22.4 µM [inhibitor, single point]"
O=C(N/N=C/c1c[nH]c2ccccc12)c1[nH]c2ccc(Br)cc2c1-c1ccccc1,–,"inconclusive: 7.94 µM [inhibitor, partial curve, poor fit]"
O=C(NC1CCCCCC1)c1ccc(CS(=O)c2ccc(Br)cc2)o1 (configuration not stated),–,"inconclusive: 15.8 µM [inhibitor, single point]"
CC(=O)c1cccc(-c2cnc3c(NC=O)cc(-c4ccccc4Oc4ccccc4)cn23)c1,–,"inconclusive: 20 µM [inhibitor, single point]"
O=S(=O)(Nc1ccc(-c2ccc(N3CCCC3)nn2)cc1)c1ccc(OC(F)(F)F)cc1,–,"inconclusive: 3.55 µM [inhibitor, partial curve, poor fit]"
